Among all 310,000 compounds or so, about 14,000 (4.5%) showed an effect of 50% or more. The effect is printed as a negative number. The list shows a part of the results.
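Further: peak tail current of the secondary pulse compared with the same well before compound.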

Chain of human ether-à-go-go-related gene (hERG) potassium channel (Q12809 whole entry, looked up): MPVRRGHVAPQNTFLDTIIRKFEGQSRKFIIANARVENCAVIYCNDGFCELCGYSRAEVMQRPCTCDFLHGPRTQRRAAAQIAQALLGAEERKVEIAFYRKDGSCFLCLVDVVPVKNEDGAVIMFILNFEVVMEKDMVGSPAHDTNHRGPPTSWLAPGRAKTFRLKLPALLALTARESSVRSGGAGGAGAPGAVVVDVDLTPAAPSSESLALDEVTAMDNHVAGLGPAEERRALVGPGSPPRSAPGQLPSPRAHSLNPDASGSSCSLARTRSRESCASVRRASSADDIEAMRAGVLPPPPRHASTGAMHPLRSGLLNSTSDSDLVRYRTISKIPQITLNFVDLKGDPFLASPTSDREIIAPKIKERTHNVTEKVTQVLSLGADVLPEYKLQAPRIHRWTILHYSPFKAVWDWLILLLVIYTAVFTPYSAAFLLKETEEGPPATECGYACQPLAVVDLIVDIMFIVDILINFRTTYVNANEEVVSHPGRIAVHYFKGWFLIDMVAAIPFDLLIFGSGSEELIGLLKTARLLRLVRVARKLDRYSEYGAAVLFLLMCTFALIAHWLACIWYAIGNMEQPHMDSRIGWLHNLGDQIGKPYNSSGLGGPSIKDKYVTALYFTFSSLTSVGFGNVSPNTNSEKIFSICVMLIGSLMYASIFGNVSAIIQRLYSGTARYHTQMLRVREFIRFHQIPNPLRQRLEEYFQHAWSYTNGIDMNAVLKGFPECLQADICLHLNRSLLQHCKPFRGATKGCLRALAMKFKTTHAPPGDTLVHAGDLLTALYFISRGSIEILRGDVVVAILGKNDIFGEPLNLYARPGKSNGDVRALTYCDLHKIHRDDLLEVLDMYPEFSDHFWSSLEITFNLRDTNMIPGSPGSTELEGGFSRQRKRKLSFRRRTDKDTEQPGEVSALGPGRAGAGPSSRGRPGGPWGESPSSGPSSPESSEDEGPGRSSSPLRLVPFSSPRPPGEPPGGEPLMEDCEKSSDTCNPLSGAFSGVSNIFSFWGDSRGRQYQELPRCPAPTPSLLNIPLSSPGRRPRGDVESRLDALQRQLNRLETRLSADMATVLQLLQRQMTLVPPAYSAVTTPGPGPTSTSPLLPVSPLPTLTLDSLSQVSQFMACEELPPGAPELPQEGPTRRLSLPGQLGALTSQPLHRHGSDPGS

The assay concerns the target human ether-à-go-go-related gene (hERG) potassium channel (human, UniProt Q12809). Kind of assay: primary screen, population patch clamp on CHO cells stably expressing hERG.
In the case of `O=C(c1ccc([N+](=O)[O-])cc1[N+](=O)[O-])n1cnc2ccccc21`, the “hERG current change (%, negative = inhibition) at 10uM” value was -16.4%.

Turning to `Cc1cccc(NC(=O)c2nc[nH]c2C(=O)N[C@@H](C)C(=O)OCc2ccccc2)c1`, the “hERG current change (%, negative = inhibition) at 10uM” value is reported as 16%. Under `O=C(/C=C/c1ccc([N+](=O)[O-])s1)N1CCCCC1` stands -38.7%.

Turning to `O=C(NC1CCCC1)C(c1ccncc1)N(CC1CCCO1)C(=O)Cn1nnc(-c2cccs2)n1` (stereo not shown), the “hERG current change (%, negative = inhibition) at 10uM” value is -13.9%. In the case of `Cc1cc(=O)oc2cc(OCC(=O)OC(C)C(=O)NC3CCCC3)ccc12` (stereo not shown) it was 2.63%. In the case of `O=C(CCCCCN1C(=O)c2ccccc2C1=O)Nc1ccc(C(=O)O)cc1` it was 18.1%. In the case of `CCN(CC)S(=O)(=O)c1cc(C(=O)OCC(=O)c2ccc3c(c2)NC(=O)CO3)ccc1Cl`, the “hERG current change (%, negative = inhibition) at 10uM” value is -3.75%.

For `COc1ccccc1NC(=O)C[n+]1ccccc1.[Cl-]`, the “hERG current change (%, negative = inhibition) at 10uM” value is given as 21.8%.

On to `O=C(c1ccc([N+](=O)[O-])cc1[N+](=O)[O-])N1CCc2ccccc21`, for which the “hERG current change (%, negative = inhibition) at 10uM” value was determined as 4.84%. For the compound `Cc1ccc(NC(=O)CN(C)CC(=O)Nc2cccc(F)c2)cc1S(=O)(=O)N1CCCCCC1.O=C(O)C(=O)O`, the “hERG current change (%, negative = inhibition) at 10uM” value is recorded as -7.23%. Turning to `CC(=O)Nc1ccc(S(=O)(=O)NC(C)C(=O)NCCc2ccc(F)cc2)cc1` (stereo not shown), the “hERG current change (%, negative = inhibition) at 10uM” value worked out at 11.3%. Under `O=C(NCC1CCCO1)c1ccc(CS(=O)(=O)c2ccc(Cl)cc2)o1` (stereo not shown) stands 3.76%; under `CCO[C@H]1OC(C(=O)N2CCOCC2)=C[C@@H](c2coc3ccccc3c2=O)[C@@H]1CCCO`, 6.6%. In the case of `CSc1ncccc1C(=O)OCC(=O)NCCC1=CCCCC1` it was 0.879%. In the case of `Cc1ccnc(NS(=O)(=O)c2ccc(NC(=O)c3ccc(S(=O)(=O)N(C)C)cc3)cc2)n1` it was 15.9%. For `COc1cccc(NC(=O)C2CCCN(c3ncnc4c3nc3n4CCCCC3)C2)c1` (stereo not shown), the “hERG current change (%, negative = inhibition) at 10uM” value is -67.4%. In the case of `Nn1c(SCc2nc3ccccc3[nH]2)nnc1-c1cccnc1` it was -6.77%. In the case of `C#CC(CCN1CCCCC1)(OC)c1ccccc1.Cl` (stereo not shown) it was -28.6%; in that of `COC(=O)c1cc(NC(=O)c2ccc(-c3ccccc3)cc2)ccc1Cl`, -2.01%. Under `O=S(=O)(c1ccc2c(c1)oc1ccccc12)N1CCOCC1` stands -5.51%; under `CN(C)c1nc(N)nc(CSc2nnnn2-c2ccc(F)cc2)n1`, 1.46%. As for `O=C(CSC(=S)N1CCCC1)N1CCN(S(=O)(=O)c2cccc(F)c2)CC1`, the “hERG current change (%, negative = inhibition) at 10uM” value was -15.1%.
